Measured values as given in the supplement of paper PMC11417369.
± gives the standard deviation of the averaged measurements. The list shows a part of the results.

System: PfAP2-G AP2 domain (GST-tagged)
Assay: gcPBM binding intensity (ln(normalized median fluorescence intensity)); higher = stronger DNA binding
Method in brief: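 Plasmodium falciparum DNA-binding domains carrying a GST tag were expressed in E. coli and applied for 1 h, at about 25 μg on average, to an Agilent 4 × 180k array. The array held primer-extended double-stranded 36-bp intergenic genomic probes together with negative controls, and binding took place in 1× PBS with 1% milk, 0.2 mg/ml BSA, 0.5% salmon testes DNA and 0.03% Triton X-100. An Alexa488 anti-GST antibody detected bound protein, and the array was scanned at 488 nm. Binding intensity is taken as the highest Masliner-normalised natural-log median intensity across replicate spots of either probe orientation.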

Sequence	gcPBM binding intensity (ln)
CTATATACTAAATGCACACTTATATATTTATATATA [CACACA_site2454]	10.1 ± 0.21
TATATTTTTTTAATATGTACATATATATATAAAACA [XGTACX_site2171]	11.2 ± 0.79
TCTGTGCACGCATGAAGTACAAAAAAGGTTTCCAGT [XGTACX_site5049]	11.3 ± 0.71
ATATATATATATATATGTACATATATTTATATTTAT [XGTACX_site6179]	11.1 ± 0.56
GAATAATATGGACATACACACATATACATACAGATA [CACACA_site5200]	11 ± 0.73
TTTCATTGGTTTATAAAATTATGAGATCTTAAAGAC [CACACA_negctrl_site1484]	9.98 ± 0.13
TCTGTAAAGTAATGGACACACAATATATCCATTTAT [CACACA_site1536]	10.8 ± 0.46
TTATATATCTATAATACACACATAATAATATATTTA [CACACA_site7423]	9.97 ± 0.12
GCTACGTAAAAAATATGTACATATGAAATATTTTGC [XGTACX_site5111]	11.2 ± 0.8
ATACATATATAAATACGTACATATATAATTATATAT [XGTACX_site8178]	11.6 ± 0.93
AAATGAGAAGAAATACGTACATATAATAAAATAATT [XGTACX_site4439]	11.5 ± 0.89
ATGCATAAATTTTGAAGTACAAAAAAAAAAAATAAA [XGTACX_site7282]	11.4 ± 0.86
TTTTTTTTTTTTTTGGGTACATAATAATAACAAGTG [XGTACX_site1034]	11.3 ± 1
TTTTATTTAACTCATAATTTTTTAAAAAACAATTAT [XGTACX_negctrl_site19]	10 ± 0.24
AAAATATAATATAATGCACACATAAACAAAAAAAAA [CACACA_site8161]	10.1 ± 0.12
CACATATACTTCTGTGCACACGAATATTTTTCTTCT [CACACA_site1408]	10.6 ± 0.35
CATGTAATATTAAACACACACTCATATAACTCAATA [CACACA_site4212]	10.03 ± 0.099
TTTCTTATAGATTTTAATCCTCTATCAAAAAAAGAA [GTGCAC_negctrl_site162]	9.82 ± 0.26
TTAACATTATATGAAGGTACAGAAAAAAAAAAATTA [XGTACX_site8530]	10.9 ± 0.64

Sequence	gcPBM binding intensity (ln)
CTTATTTAAGAGTATGAACACACATCATACACATAT [CACACA_site9205]	10.3 ± 0.23
TTTTTAATATTCTATGCATGCATCGCATATTTGGTT [TGCATGCA_site1004]	9.715 ± 0.049
CATACAGTATTATACTGTACCCATACAAAAAAATAT [XGTACX_site6130]	11.6 ± 0.83
AAATAAAAAAAATTTGCACACCTTCAAAGTAATATA [CACACA_site1583]	9.985 ± 0.035
TCTTTTCAATTATCCTATATTCTTTTATTTTTAATT [GTGCAC_negctrl_site326]	9.82 ± 0.16
CATACACCCATACATACACACATACATACACCCATA [CACACA_site5124]	10.3 ± 0.28
ATAAAGGAATTTTATACACACAACATATAAATATAT [CACACA_site7365]	9.995 ± 0.064
AGAGAAAAATATTTGGACAAAAATAATATAATATAT [CACACA_negctrl_site656]	10.3 ± 0.25
ATTCGTATGAGCATAACACACAATATCGATATTTCT [CACACA_site4165]	10.025 ± 0.007
ATATCTAAATATATTACACACAGATATCTTCCTATA [CACACA_site3701]	9.84 ± 0.16
AATTAAAATACAAATGTATGCATGTCTCATATAGAA [TGCATGCA_site822]	9.79 ± 0.085
TTACGAATTACATATTGTACATATGCACAATTTTAA [XGTACX_site6802]	10.9 ± 0.52
TCCTATAATAACGTCACACATTAAATTTAATAAATT [CACACA_site4506]	10.3 ± 0.24
AAAAAAAAAAAAAAAACACACATATATCTATAATAT [CACACA_site6665]	10.2 ± 0.26
TATACAAAATATTTTACACACACATATATATACATA [CACACA_site2616]	10.01 ± 0.057
CATTATTTATTTTAATGTACTTATTTTTAAATTGGT [XGTACX_site8038]	11.5 ± 0.96
AGTGCATACATGAATTGTACTTTAAAATAAATTCTA [XGTACX_site8156]	11 ± 0.64
ATAAAACAACAAAGAAAATGAAAAAGTAAAAACATA [CACACA_negctrl_site596]	9.98
TATTTATAAAAAGATTGTACATTTTTTATTATTGTA [XGTACX_site6016]	11 ± 0.54

Sequence	gcPBM binding intensity (ln)
GTTCATTCATTTTAATGTACAAATTTAACTTTTTCT [XGTACX_site680]	10.7 ± 0.45
TATAAATATAAATACACACACATATAGATTATAGAT [CACACA_site6429]	10.12 ± 0.092
TCTAATAATATATACACACACATATATATTTATATA [CACACA_site2032]	9.815 ± 0.064
TGCTACATTCTATGTACACACATATACATATATATA [CACACA_site893]	11.2 ± 0.83
TATATCTGTAAATGCACACATATGTGGATATACTTA [CACACA_site5013]	10.1
AGAAATTATAAATACCTACACACTTATCAAAATAAA [CACACA_site2264]	9.98 ± 0.13
TAAGACATGATATATACACACCTTGTTTTAATTTTC [CACACA_site5282]	9.915 ± 0.064
GATAAAGTAAAAATATGTACATATATATTTTAAGTT [XGTACX_site6439]	11.4 ± 0.78
TTCATATTCGATAAAGTGCATTAATTTTATTTATCA	9.92 ± 0.16
TCCAATTGTTCTAGTGTGCACATAAATAAATCTCAT	10.7 ± 0.49
AATACTTTTTTCTGTACACACTTGATTTACTATAAT [CACACA_site5544]	11.6 ± 0.83
ATAAATAAAAAAGAAAGAAAGAAAGAAACAAACAAA [CACACA_negctrl_site1198]	10.1 ± 0.24
AAGAGTTAAAAAAATACACACATATAGATTTTTTTA [CACACA_site7018]	9.805 ± 0.049
AAAAATATTAAAAAAGGTACACAGCATATCTCTTTT [XGTACX_site65]	11.2 ± 0.88
TATTAATGCAAATGTTATATGTGCATACATAAATGT [CACACA_negctrl_site790]	9.835 ± 0.092
TATTACATACATATCTGTACATATATTAATGCACAA [XGTACX_site3315]	11.1 ± 0.71
TAAAAAAAAACTCATGCACACAATATTATGAAAAAG [CACACA_site665]	10.08 ± 0.042
AAATATTATGTACGCACACACATTTTTAATATATAA [CACACA_site3851]	11.4 ± 0.83
TTATTTACAACTTCAAATTATGTGTAATACTACTAT [CACACA_negctrl_site741]	10.1 ± 0.18
